Variants at the floor of the assay are shown more often than the library holds them.
B1: TPR 5TU (parent)
chain: GGAUCUUCUCGAUCUAACAAAAAAGACAAAUCUGCCACAAAGCUUGAGAGCAUCUUCGGAUGCAGAGGCGGCAGCCUUCGGUGGCGCGAUAGCGCCAACGUUCUCAACUAUGACACGCAAAACGCGUGCUCCGUUGAAUGGAGUUUAUCAUG

Variants of: B1
Experiment: polymerase ribozyme fitness, log enrichment relative to wild type (log ratio); higher = more active; in vitro selection for triplet polymerase activity
Outline: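 Fitness measures genotype enrichment against wild-type enrichment on a logarithmic scale, with inverse-variance-weighted averaging of replicates. The logarithm is base 2, and genotypes were kept only with ≥10 input reads and ≥1 read per output in Illumina sequencing. The sequenced libraries came from one triplicate in vitro selection round, including frozen incubation at −7 °C, of PCR-built, transcribed mutant libraries of each subunit of a heterodimeric triplet polymerase ribozyme.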

Variant	polymerase ribozyme fitness (log ratio)
GGAUCUUCUCGAUCUAACAAAAAAGACAAAUCUGCCACAAAGCUUGAGAGCAUCUUCGGAUGCAGAGGCGGCAGUCUUCGGUGGCGCGAUAGCCCCAACGUUCUCAACUAUGACACGCAAAACGCGUGCUCCGUUGAAUGGCGUUUAUCAUG	-2.58
GGAUCUUCUCGAUCUAACAAAAAAGACAAAUCUGCCACAAAGCUUGAGAGCAUCUUCGGAUGCAGAGGCGGCAGUCUUCGGUGGCGCGAUAGCGCCAACGUUCUCAACUAUGACACGCAAAACGCGUGCUCCGUUCAAUGGAGUUUAUCAUG	-2.6
GGAUCUUCUCGAUCUAACAAAAAAGACAAAUCUGCCACAAAGCUUGAGAGCAUCUUCGGAUGCAGAGGCGGCAGUCUCCGGUGACGCGAUAGCGCCAACGUUCUCAACUAUGACACGCAAAACGCGUGCUCCGUUGAAUGGAGUUUAUCAUG	-1.65
GGAUCUUCUCGAUCUAACAAAAAAGACAAAUCUGCCACAAAGCUUGAGAGCAUCUUCGGAUGCAGAGGCGGCAGUCUUCGGUGGCGCGACUGGUCCACCGUUCUCAACUAUGACACGCAAAACGCGUGCUCCGUUGAAUGGAGUUUAUCAUG	≤ -4.2
GGAUCUUCUCGAUCUAACAAAAAAGACAAAUCUGCCACAAAGCUUGAGAGCAUCUUCGGAUGCAGAGGCGGCAGUCUUCGGUGGCGCGAUAGCGCCAACGAUCGCAACUAUGACACGCAAAACGCGUGCUCCGUCGAAUGGAGUUUAUCAUG	≤ -4.2
GGAUCUUCUCGAUCUAACAAAAAAGACAAAUCUGCCACAAAGCUUGAGAGCAUCUUCGGAUGCAGAGGCGGCAGUCUUCGGUGGCGCGAUAGCGCCAACGUUCUCAACUAUGACACGCAAAACGCGUGCUCCGUUGAAUGGAGUCGAUCAUG	-0.419
GGAUCUUCUCGAUCUAACAAAAAAGACAAAUCUGCCACAAAGCUUGAGAGCAUCUUCGGAUGCAGAGGCGGCAGCAUUCGGUGGCGCGAUAGCGCCAUCAUUCUCAACUAUGACACGCAAAACGCGUGCUCCGUUGAAUGGAGUUUAUCAUG	≤ -4.2
GGAUCUUCUCGAUCUAACAAAAAAGACAAAUCUGCCACAAAGCUUGAGAGCAUCUUCGGAUGCAGAGGCGGCAGCAUUCGGUGGCGCGAUAGCGCCAUCGUUCUCAACUAUGACACGCAAAACGCGUGCUCCGUUGAAUGGAGUUUACCAUG	≤ -4.2
GGAUCUUCUCGAUCUAACAAAAAAGACAAAUCUGCCACAAAGCUUGAGAGCAUCUUCGGAUGCAGAGGCGGCAGCAUUCGGUGGCGCGAUAGCGCCAACGUUCUCAACUAUGACACGCAAAGCGCGUGCUCCGUUGAAUGGAGUUUAUCAUG	-0.466
GGAUCUUCUCGAUCUAACAAAAAAGACAAAUCUGCCACAAAGCUUGAGAGCAUCUUCGGAUGCAGAGGCGGCAGCAUUCGGUGGCGCGAUAGCGCCAACGUUCUCAACUAUGACACGCAAAACGCGUGCUCCGUUGAUUGGAGUUUAUCAUG	-4.05
GGAUCUUCUCGAUCUAACAAAAAAGACAAAUCUGCCACAAAGCUUGAGAGCAUCUUCGGAUGCAGAGGCGGCAGCAUUCGGUGGCGCGAUAGCGCCAACGUUCUCAACUAUGACACGCAAAACGCGUGCUCCGUUGAAUGGAGUUUAUCCUG	≤ -4.2
GGAUCUUCUCGAUCUAACAAAAAAGACAAAUCUGCCACAAAGCUUGAGAGCAUCUUCGGAUGCAGAGGCGGCAGCAUUAGGUGGCUCGAUAGCGCCAACGUUCUCAACUAUGACACGCAAAACGCGUGCUCCGUUGAAUGGAGUUUAUCAUG	≤ -4.2
GGAUCUUCUCGAUCUAACAAAAAAGACAAAUCUGCCACAAAGCUUGAGAGCAUCUUCGGAUGCAGAGGCGGCAGCAUUGGGUGGCGCGAUAGCGCCAACGUUCCCAACUAUGACACGCAAAACGCGUGCUCCGUUGAAUGGAGUUUAUCAUG	≤ -4.2
GGAUCUUCUCGAUCUAACAAAAAAGACAAAUCUGCCACAAAGCUUGAGAGCAUCUUCGGAUGCAGAGGCGGCAGCAUUUGGUGGCGCGAUAGCGCAAACGUUCUCAACUAUGACACGCAAAACGCGUGCUCCGUUGAAAGGAGUUUAUCAUG	≤ -4.2
GGAUCUUCUCGAUCUAACAAAAAAGACAAAUCUGCCACAAAGCUUGAGAGCAUCUUCGGAUGCAGAGGCGGCAGCAUUCGGUGGUGCGAUAGCGCCAACGUUCUCAACUAUGACACGCAAAACGCGUGCUCCGUUGAAUCGAGUUUAUCAUG	-3.97
GGAUCUUCUCGAUCUAACAAAAAAGACAAAUCUGCCACAAAGCUUGAGAGCAUCUUCGGAUGCAGAGGCGGCAGCAUUCGGUGGUGCGAUAGCGCCAACGUUCUCAACUAUGACACGCAAAACGCGUGCUCCGUUGAAUGGAGUCUAUCAUG	-0.371
GGAUCUUCUCGAUCUAACAAAAAAGACAAAUCUGCCACAAAGCUUGAGAGCAUCUUCGGAUGCAGAGGCGGCAGCAUUCGGUGGCGAGAUAGCGCCAACGUUCUCAACUAUGACACGCAAAACGCGUGCUCCGUUGAAUGGAGUUUAUCAUG	≤ -4.2
GGAUCUUCUCGAUCUAACAAAAAAGACAAAUCUGCCACAAAGCUUGAGAGCAUCUUCGGAUGCAGAGGCGGCAGCAUUCGGUGGCGAGAUAGCGUCAACGUUCUCAACUAUGACUCGCAAAACCCGUGCUCCGUUGAAUGGAGUUUAUCAUG	≤ -4.2
GGAUCUUCUCGAUCUAACAAAAAAGACAAAUCUGCCACAAAGCUUGAGAGCAUCUUCGGAUGCAGAGGCGGCAGCAUUCGGUGGCGAGAUAGCGCCAAUGUUCUCAACUAUGACACGCAAAACGCGUGCUCCGUUGAAUGGAGUUUAUCACG	≤ -4.2

Variant	polymerase ribozyme fitness (log ratio)
GGAUCUUCUCGAUCUAACAAAAAAGACAAAUCUGCCACAAAGCUUGAGAGCAUCUUCGGAUGCAGAGGCGGCAGCAUUCGGUGGCGGGAUAGCGCCAUCGUUCUCAACUAUGACGCGCAAAACGCGUGCUCCGUUGAAUGCAGUUUAUCAUG	≤ -4.2
GGAUCUUCUCGAUCUAACAAAAAAGACAAAUCUGCCACAAAGCUUGAGAGCAUCUUCGGAUGCAGAGGCGGCAGCAUUCGGUGGCGCGAUAGCGCCAACGUUUUCAACUAUGACACGCAAAACGCGUGCUCCGAUGAAUGGAGUUUAUCAUG	-4.15
GGAUCUUCUCGAUCUAACAAAAAAGACAAAUCUGCCACAAAGCUUGAGAGCAUCUUCGGAUGCAGAGGCGGCAGCAUUCGGUGGCGCGAUAGCGCCAACGUUCUCAACUAUGACACGCAAAAUGCGUGCUCCGAUGAAUGGAGUUUAUCAUG	-1.5
GGAUCUUCUCGAUCUAACAAAAAAGACAAAUCUGCCACAAAGCUUGAGAGCAUCUUCGGAUGCAGAGGCGGCAGCAUUCGGUGGCGCGAUAGCGCCAACGUUCUCAACUAUGACACGCAAAACGCGUGGUCCGUUAAAUGGAGUUUAUCAUG	-3.95
GGAUCUUCUCGAUCUAACAAAAAAGACAAAUCUGCCACAAAGCUUGAGAGCAUCUUCGGAUGCAGAGGCGGCAGCAUUCGGUUGCGCGAUAGCGCCAACGUUCUCGACUAUGACACGCAAAACGCGUGCUCCGUUGAAUGGAGUUUAUCAUG	-3.45
GGAUCUUCUCGAUCUAACAAAAAAGACAAAUCUGCCACAAAGCUUGAGAGCAUCUUCGGAUGCAGAGGCGGCAGCAUUCGGUGGCUCGAUAGCGCCAACGUUCUCAACUAUGACACGCAAAACGCGUGCUCCGUUGAAUGGAGUUUAUCAUG	-1.75
GGAUCUUCUCGAUCUAACAAAAAAGACAAAUCUGCCACAAAGCUUGAGAGCAUCUUCGGAUGCAGAGGCGGCAGCAUUCGGUGGCGCGAUAGCACCAACGUUCUCAACUAUGACACGCAAAACGCGUGCUCCGUUGAAUGGAGUUUAUCAUG	-0.598
GGAUCUUCUCGAUCUAACAAAAAAGACAAAUCUGCCACAAAGCUUGAGAGCAUCUUCGGAUGCAGAGGCGGCAGCAUUCGGUGGCGCGAUAGCGCCAACGUUCUCAACUAUGACACGCAAAACGCGUGCUCCGUUGAAUGGAGUUUAUCAUU	≤ -4.2
GGAUCUUCUCGAUCUAACAAAAAAGACAAAUCUGCCACAAAGCUUGAGAGCAUCUUCGGAUGCAGAGGCGGCAGCAUUCGGAGGGGCGAUAGCGCCAACGUUCUCGUGUAUGACACGCAAAACGCGUGAUCCGUUGAAUGGAGUUUAUCAUG	≤ -4.2
GGAUCUUCUCGAUCUAACAAAAAAGACAAAUCUGCCACAAAGCUUGAGAGCAUCUUCGGAUGCAGAGGCGGCAGCAUUCGGUGGCGCGAGAGCGCCAACGUUCUCAACUAUGACACGCAAAACGCGUGCUCCGUUGAAUGGAGUUUAUCAUG	≤ -4.2
GGAUCUUCUCGAUCUAACAAAAAAGACAAAUCUGCCACAAAGCUUGAGAGCAUCUUCGGAUGCAGAGGCGGCAGCAUUCGGUGGCGCGAUAGCGCCAACGUGCUCAACUAUGACACGCAAAACGCGUGCUCCGUUGAAUGGAGUUUAUCAUG	≤ -4.2
GGAUCUUCUCGAUCUAACAAAAAAGACAAAUCUGCCACAAAGCUUGAGAGCAUCUUCGGAUGCAGAGGCGGCAGCAUUCGGUGGCGCGAUAGCGCCAACGUGCUCAACUAUGACACGCAAAACGCGUGCUCCGUUGAAUCGAGUUUAUCAUG	≤ -4.2
GGAUCUUCUCGAUCUAACAAAAAAGACAAAUCUGCCACAAAGCUUGAGAGCAUCUUCGGAUGCAGAGGCGGCAGCAUUCGGUGGCGCGAUAGCGCCAACGUUCACAACUAUGACACGCAAAACGAGUGCUCCGUUGAAUGGCGAUUAUCAUG	≤ -4.2
GGAUCUUCUCGAUCUAACAAAAAAGACAAAUCUGCCACAAAGCUUGAGAGCAUCUUCGGAUGCAGAGGCGGCAGCGUUCGGUGGCGCGCUAGCUCCAACGUUCUCAAUUAUGUCACGCAAAACGCGUGCUCCGUUGAAUGGAGUUUAUCAUG	≤ -4.2
GGAUCUUCUCGAUCUAACAAAAAAGACAAAUCUGCCACAAAGCUUGAGAGCAUCUUCGGAUGCAGAGGCGGCAGCGUUCGGUGGCGCGAUAGCGCCGACGUUCUCAACUAUGACACGCAAAACGCGUGCUCCGUUGAAUGGAGUUUAUCAUG	≤ -4.2
GGAUCUUCUCGAUCUAACAAAAAAGACAAAUCUGCCACAAAGCUUGAGAGCAUCUUCGGAUGCAGAGGCGGCAGCGUUCGGUGGCGCGAUAGCGCCAACGUUCUCAACUAUGACGCGCAUAACGCGUGCUCCGUUGAAUGGAAUUUAUCAUG	≤ -4.2
GGAUCUUCUCGAUCUAACAAAAAAGACAAAUCUGCCACAAAGCUUGAGAGCAUCUUCGGAUGCAGAGGCGGCAGCGUUCGGUGGCGCGAUAGCGCCAACGUUCUCAACUAUGACACGCAUAACGCGUGCUCCGUUGAAUGGAGGUUAUCAUG	≤ -4.2
GGAUCUUCUCGAUCUAACAAAAAAGACAAAUCUGCCACAAAGCUUGAGAGCAUCUUCGGAUGCAGAGGCGGCAGCGUUUGGUGGCGCGAUAGUGCCAACGUUCUCAACUUUGACACGCAAAACGCGUGCUCCGUUGAAGGGAGUUUAUCAUG	≤ -4.2
GGAUCUUCUCGAUCUAACAAAAAAGACAAAUCUGCCACAAAGCUUGAGAGCAUCUUCGGAUGCAGAGGCGGCAGCGUUCGGUGGCGUGAUAGCGCCAACGUUCUCAACUAUGACACGUAAAACGCGUGCUCCGUUGAAUGGAGUUUAUCAUG	≤ -4.2

Reference: the RNAGym collection of RNA variant scans (doi:10.1073/pnas.2313332121)
